Values marked as one replicate rest on one cluster of the flow cell; about a third of the high ones do not repeat.
These sequences were tested on ATP (assay: switch fluorescence ratio, 500 uM ATP over buffer (Cy3 cluster intensity, sum of 5 cycles each) (fold (ratio)); higher = stronger signal-on switching upon ATP binding; sequences stand for … in TCGTCGGCAGCGTCAGATGTGTATAAGAGACAGTTTTTTTTTTTTTTTTTTTTTTTTT…TC). Conditions: aptamer strand: ATP DNA aptamer (quencher-CACCTGGGGGAGTATTGCGGAGGAAGG + anchor), 100 nM annealed; ATP concentration: 500 uM; one replicate.
In short: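 Five buffer/ATP imaging cycles were run on Cy3-labelled switching-strand clusters on a modified Illumina MiSeq flow-cell, with NaOH stripping and re-annealing between cycles. In each cycle, clusters annealed to 100 nM quencher-labelled ATP aptamer were imaged in selection buffer, then after 15 min with 500 uM ATP at 22 °C. Per cluster, the fluorescence ratio is summed target-cycle over summed buffer-cycle Cy3 intensity, averaged per switch-domain sequence. Only clusters within 100-1000 RFU were kept.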
Sequence AACGAAACGT has a switch fluorescence ratio of 1.05.
In the case of AACGAATCAT, the switch fluorescence ratio is reported as 0.972.
Sequence AACGACCCGC has a switch fluorescence ratio of 1.24.
For AACGACTGTT, the switch fluorescence ratio was 1.05.
AACGATCAA gave a switch fluorescence ratio of 1.
Work on AACGATTCTG yielded a switch fluorescence ratio of 1.11.
AACGATTGAA was tested, and the switch fluorescence ratio was 1.
Sequence AACGCAAGCG has a switch fluorescence ratio of 1.06.
Sequence AACGCATTAT has a switch fluorescence ratio of 2.44.
In the case of AACGCGCCAT, the switch fluorescence ratio is reported as 0.999.
In the case of AACGCGGCGA, the switch fluorescence ratio is reported as 1.04.
AACGCGGGAT was tested, and the switch fluorescence ratio was 0.973.
With AACGCTATGG the switch fluorescence ratio was 1.45.
Work on AACGGAGCGT yielded a switch fluorescence ratio of 1.09.
For AACGGATACC, the switch fluorescence ratio was 1.12.
AACGGCATCC gave a switch fluorescence ratio of 1.1.
Work on AACGGGCGGA yielded a switch fluorescence ratio of 1.04.
AACGGTCGTG showed a switch fluorescence ratio of 0.963.
AACGTATAGG was tested, and the switch fluorescence ratio was 1.03.
For AACGTATTAG, the switch fluorescence ratio was 1.36.
Work on AACGTATTCA yielded a switch fluorescence ratio of 1.1.
For AACGTCACCA, the switch fluorescence ratio was 1.54.
AACGTCATAC was tested, and the switch fluorescence ratio was 3.38.
Sequence AACGTCCGAA has a switch fluorescence ratio of 1.1.
Work on AACGTCGCG yielded a switch fluorescence ratio of 1.03.
With AACGTGAGT the switch fluorescence ratio was 0.939.
AACGTGCGCC showed a switch fluorescence ratio of 1.03.
AACGTTTATA was tested, and the switch fluorescence ratio was 1.03.
AACTACGCGC showed a switch fluorescence ratio of 2.16.
Sequence AACTACTCCT has a switch fluorescence ratio of 1.17.
With AACTACTGTT the switch fluorescence ratio was 1.02.
With AACTAGAAGA the switch fluorescence ratio was 0.962.
In the case of AACTAGACAG, the switch fluorescence ratio is reported as 1.01.
AACTAGATGG showed a switch fluorescence ratio of 0.973.
AACTATCAGA was tested, and the switch fluorescence ratio was 1.01.
AACTATTGTG showed a switch fluorescence ratio of 1.06.
AACTCACTAT gave a switch fluorescence ratio of 1.16.
In the case of AACTCAGGAA, the switch fluorescence ratio is reported as 1.15.
AACTCATTTC showed a switch fluorescence ratio of 1.05.
In the case of AACTCGCAGA, the switch fluorescence ratio is reported as 1.05.
With AACTCTCATA the switch fluorescence ratio was 0.992.
AACTCTCTGA was tested, and the switch fluorescence ratio was 1.
For AACTGACTG, the switch fluorescence ratio was 1.1.
AACTGATATA showed a switch fluorescence ratio of 1.01.
Work on AACTGTGGA yielded a switch fluorescence ratio of 0.963.
AACTTAGAAC gave a switch fluorescence ratio of 1.03.
AACTTCTTCG was tested, and the switch fluorescence ratio was 1.08.
For AACTTGCCGG, the switch fluorescence ratio was 0.985.
AACTTGTGGG gave a switch fluorescence ratio of 0.984.
In the case of AACTTTCACT, the switch fluorescence ratio is reported as 1.07.
With AACTTTGGTA the switch fluorescence ratio was 1.
For AACTTTTAGC, the switch fluorescence ratio was 1.02.
Sequence AACTTTTGTC has a switch fluorescence ratio of 1.01.
AAGAAAAAGT gave a switch fluorescence ratio of 0.966.
Work on AAGAAAATGC yielded a switch fluorescence ratio of 2.34.
AAGAACTAGA was tested, and the switch fluorescence ratio was 0.991.
In the case of AAGAAGAAGC, the switch fluorescence ratio is reported as 0.916.
AAGAAGTATC showed a switch fluorescence ratio of 0.978.
In the case of AAGAATAGGT, the switch fluorescence ratio is reported as 0.997.
In the case of AAGAATCATT, the switch fluorescence ratio is reported as 0.964.
AAGAATTCAG showed a switch fluorescence ratio of 0.977.
For AAGAATTTAA, the switch fluorescence ratio was 0.996.
With AAGACCCCTG the switch fluorescence ratio was 0.94.
Work on AAGACGCTAC yielded a switch fluorescence ratio of 3.6.
For AAGACTGCCG, the switch fluorescence ratio was 1.02.
AAGACTGGTT gave a switch fluorescence ratio of 0.98.
In the case of AAGAGATATT, the switch fluorescence ratio is reported as 1.02.
AAGAGATGCC was tested, and the switch fluorescence ratio was 0.961.
Work on AAGAGCCTAT yielded a switch fluorescence ratio of 0.958.
For AAGAGGAGAA, the switch fluorescence ratio was 0.972.
With AAGAGGAGAC the switch fluorescence ratio was 0.984.
AAGAGGCTTG gave a switch fluorescence ratio of 1.
In the case of AAGAGGGAT, the switch fluorescence ratio is reported as 0.969.
AAGAGGTTT gave a switch fluorescence ratio of 0.973.
For AAGAGTGAGG, the switch fluorescence ratio was 0.976.
Work on AAGAGTGCAA yielded a switch fluorescence ratio of 1.03.
Work on AAGAGTTGT yielded a switch fluorescence ratio of 0.996.
Sequence AAGAGTTTGA has a switch fluorescence ratio of 0.955.
Sequence AAGATAAGAC has a switch fluorescence ratio of 1.01.
AAGATACGAT gave a switch fluorescence ratio of 1.04.
AAGATATACT was tested, and the switch fluorescence ratio was 1.04.
AAGATCATTC gave a switch fluorescence ratio of 0.997.
For AAGATCCAGG, the switch fluorescence ratio was 1.09.
Work on AAGATCCATA yielded a switch fluorescence ratio of 0.974.
For AAGATCCCGG, the switch fluorescence ratio was 1.
AAGATCGGG gave a switch fluorescence ratio of 1.07.
AAGATGAATT showed a switch fluorescence ratio of 0.961.
With AAGATGAGA the switch fluorescence ratio was 0.988.
Sequence AAGATGTCGG has a switch fluorescence ratio of 0.961.
AAGATTAAAA was tested, and the switch fluorescence ratio was 1.1.
Sequence AAGATTACCC has a switch fluorescence ratio of 1.06.
AAGATTGCAT gave a switch fluorescence ratio of 0.985.
For AAGATTTACG, the switch fluorescence ratio was 1.01.
For AAGCAAAATG, the switch fluorescence ratio was 1.1.
In the case of AAGCAAAGGA, the switch fluorescence ratio is reported as 0.965.
Sequence AAGCAAAGGC has a switch fluorescence ratio of 1.14.
AAGCAACGCG was tested, and the switch fluorescence ratio was 0.983.
AAGCAAGGTA was tested, and the switch fluorescence ratio was 1.03.
Sequence AAGCAATCA has a switch fluorescence ratio of 1.35.
AAGCACGGGG gave a switch fluorescence ratio of 1.07.
For AAGCACTTGT, the switch fluorescence ratio was 1.04.
With AAGCAGACTC the switch fluorescence ratio was 2.09.
Work on AAGCAGGTAT yielded a switch fluorescence ratio of 0.998.
For AAGCAGTGA, the switch fluorescence ratio was 0.986.
With AAGCAGTGTG the switch fluorescence ratio was 0.993.
In the case of AAGCAGTGTT, the switch fluorescence ratio is reported as 0.974.
With AAGCATTGTG the switch fluorescence ratio was 0.992.
Work on AAGCCCTCAA yielded a switch fluorescence ratio of 1.02.
With AAGCCGAAAG the switch fluorescence ratio was 1.01.
AAGCCTGTGG gave a switch fluorescence ratio of 0.957.
For AAGCCTTGCT, the switch fluorescence ratio was 0.977.
Work on AAGCGATGG yielded a switch fluorescence ratio of 1.22.
With AAGCGCGTAT the switch fluorescence ratio was 1.45.
With AAGCGGCTGG the switch fluorescence ratio was 0.988.
Sequence AAGCGGGATT has a switch fluorescence ratio of 0.993.
With AAGCGGTGTG the switch fluorescence ratio was 0.946.
With AAGCGTTAAC the switch fluorescence ratio was 1.01.
Sequence AAGCTACAGG has a switch fluorescence ratio of 1.09.
In the case of AAGCTTAGAT, the switch fluorescence ratio is reported as 0.98.
AAGCTTCGGA was tested, and the switch fluorescence ratio was 0.931.
Work on AAGCTTGTGC yielded a switch fluorescence ratio of 1.03.
With AAGGAAAAAT the switch fluorescence ratio was 1.
Work on AAGGAATACG yielded a switch fluorescence ratio of 1.06.
In the case of AAGGACGCGA, the switch fluorescence ratio is reported as 1.32.
AAGGAGCGG gave a switch fluorescence ratio of 0.947.
With AAGGAGCTAG the switch fluorescence ratio was 1.02.
AAGGATAAAT was tested, and the switch fluorescence ratio was 0.981.
AAGGATTGG showed a switch fluorescence ratio of 1.01.
For AAGGCACATT, the switch fluorescence ratio was 1.14.
AAGGCAGATT showed a switch fluorescence ratio of 0.994.
For AAGGCAGGAG, the switch fluorescence ratio was 1.03.
AAGGCCAATG gave a switch fluorescence ratio of 0.993.
AAGGCCACAG gave a switch fluorescence ratio of 1.07.
AAGGCCATAG was tested, and the switch fluorescence ratio was 1.01.
With AAGGCCCGGC the switch fluorescence ratio was 0.984.
Sequence AAGGCCGAG has a switch fluorescence ratio of 0.993.
AAGGCCGCTT gave a switch fluorescence ratio of 0.993.
Sequence AAGGCCGTCA has a switch fluorescence ratio of 1.
AAGGCGCGTT was tested, and the switch fluorescence ratio was 0.983.
In the case of AAGGCTAGAA, the switch fluorescence ratio is reported as 1.01.
With AAGGCTTTAT the switch fluorescence ratio was 0.968.
With AAGGGAAGAG the switch fluorescence ratio was 1.03.
Sequence AAGGGCATGG has a switch fluorescence ratio of 1.02.
In the case of AAGGGCCGGT, the switch fluorescence ratio is reported as 0.977.
With AAGGGGAGAC the switch fluorescence ratio was 1.73.
With AAGGGGTCCG the switch fluorescence ratio was 0.915.
For AAGGGGTGTC, the switch fluorescence ratio was 0.985.
AAGGGTAGCC gave a switch fluorescence ratio of 0.965.
Sequence AAGGGTCCCA has a switch fluorescence ratio of 0.991.
For AAGGGTGCCA, the switch fluorescence ratio was 1.04.
In the case of AAGGTAAAAG, the switch fluorescence ratio is reported as 1.01.
With AAGGTAAGCG the switch fluorescence ratio was 1.
With AAGGTCCTGT the switch fluorescence ratio was 0.956.
AAGGTCGGTG was tested, and the switch fluorescence ratio was 0.964.
Work on AAGGTCTCTG yielded a switch fluorescence ratio of 1.
In the case of AAGGTCTGG, the switch fluorescence ratio is reported as 0.978.
With AAGGTCTTCT the switch fluorescence ratio was 1.03.
In the case of AAGGTGATA, the switch fluorescence ratio is reported as 1.06.
AAGGTGGTAG showed a switch fluorescence ratio of 1.02.
Sequence AAGGTGGTGT has a switch fluorescence ratio of 1.05.
With AAGGTTACGG the switch fluorescence ratio was 1.05.
Sequence AAGTAACTGA has a switch fluorescence ratio of 1.08.
For AAGTAATGAG, the switch fluorescence ratio was 0.987.
AAGTAATTGG was tested, and the switch fluorescence ratio was 0.971.
With AAGTACAGTT the switch fluorescence ratio was 1.24.
In the case of AAGTACCATA, the switch fluorescence ratio is reported as 1.27.
AAGTACCTGA showed a switch fluorescence ratio of 1.32.
AAGTACTTAT was tested, and the switch fluorescence ratio was 1.06.
With AAGTAGAATC the switch fluorescence ratio was 0.944.
In the case of AAGTAGAGCG, the switch fluorescence ratio is reported as 1.
Work on AAGTAGGTTT yielded a switch fluorescence ratio of 0.952.
For AAGTATAAAT, the switch fluorescence ratio was 1.02.
AAGTATGTGA showed a switch fluorescence ratio of 0.998.
In the case of AAGTATTCAC, the switch fluorescence ratio is reported as 1.07.
Work on AAGTATTCAT yielded a switch fluorescence ratio of 0.967.
For AAGTCAGACA, the switch fluorescence ratio was 1.03.
AAGTCAGAG was tested, and the switch fluorescence ratio was 1.03.
AAGTCAGAGG was tested, and the switch fluorescence ratio was 1.05.
For AAGTCAGAT, the switch fluorescence ratio was 0.98.
AAGTCATAT gave a switch fluorescence ratio of 0.987.
Work on AAGTCCCGGG yielded a switch fluorescence ratio of 0.943.
For AAGTCCTGAC, the switch fluorescence ratio was 1.06.
Work on AAGTCCTGG yielded a switch fluorescence ratio of 1.07.
Work on AAGTCCTTT yielded a switch fluorescence ratio of 0.964.
AAGTCCTTTT showed a switch fluorescence ratio of 1.05.
In the case of AAGTCGGTAC, the switch fluorescence ratio is reported as 1.25.
Sequence AAGTCTAGTC has a switch fluorescence ratio of 1.03.
Work on AAGTCTCTTT yielded a switch fluorescence ratio of 0.979.
In the case of AAGTCTTGCT, the switch fluorescence ratio is reported as 0.971.
AAGTGAGGGC was tested, and the switch fluorescence ratio was 1.03.
AAGTGATGCG showed a switch fluorescence ratio of 0.972.
AAGTGGATAC showed a switch fluorescence ratio of 1.06.
AAGTGGCATT was tested, and the switch fluorescence ratio was 0.994.
With AAGTGGGCTC the switch fluorescence ratio was 0.966.
AAGTGTCACT gave a switch fluorescence ratio of 1.03.
In the case of AAGTGTGAG, the switch fluorescence ratio is reported as 1.01.
Sequence AAGTGTGGA has a switch fluorescence ratio of 1.07.
For AAGTTAACCA, the switch fluorescence ratio was 1.01.
For AAGTTACACA, the switch fluorescence ratio was 0.941.
AAGTTATCCT gave a switch fluorescence ratio of 1.03.
AAGTTATCTT gave a switch fluorescence ratio of 0.993.

— the supplement of paper PMC10126150
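Note: ATP exposure 15 min at 22 °C before imaging.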
